The whole screen tested about 300,000 compounds, of which about 1,100 (0.37%) were called active. The inconclusive results got no clear call from the source; some entries with a clear call stand among them for comparison.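 Rule for the calls: active = inhibition past about -25% in most replicates, and total fluorescence under double the plate's negative control median (limit read from the data); inconclusive = replicates evenly split on the limit, or fluorescence at least double controls; inactive = too little inhibition in most replicates.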
The molecules below were run against Zinc finger protein mex-5 (Caenorhabditis elegans) (UniProt Q9XUB2) (assay: MEX-5 zinc finger RNA-binding disruptors – biochemical, C. elegans, fluorescence polarization, MLPCN library, primary screen (AID 1832;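 note: 0% = DMSO and -100% = 5 µM competing unlabeled TCR2 RNA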)). Conditions: MEX-5/FITC-TCR2 RNA binding, at 10 µM, stronger effect = lower value.
Chain of UniProt Q9XUB2 (Q9XUB2 whole entry, looked up): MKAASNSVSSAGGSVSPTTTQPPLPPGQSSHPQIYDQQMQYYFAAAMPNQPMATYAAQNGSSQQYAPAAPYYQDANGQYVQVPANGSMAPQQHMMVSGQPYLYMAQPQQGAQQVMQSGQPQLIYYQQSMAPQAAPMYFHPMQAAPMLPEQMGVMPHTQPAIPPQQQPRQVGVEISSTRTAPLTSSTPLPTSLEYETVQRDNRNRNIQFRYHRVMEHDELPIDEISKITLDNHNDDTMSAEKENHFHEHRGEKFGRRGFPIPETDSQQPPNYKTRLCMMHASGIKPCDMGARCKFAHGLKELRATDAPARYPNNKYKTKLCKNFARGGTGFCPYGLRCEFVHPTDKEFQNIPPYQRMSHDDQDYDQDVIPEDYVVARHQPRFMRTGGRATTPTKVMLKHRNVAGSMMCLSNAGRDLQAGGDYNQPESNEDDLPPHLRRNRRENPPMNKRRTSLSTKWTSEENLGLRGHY

Activity score (negative = inhibition of binding), inactive:
Cc1ccc(C)c(N2CCN(S(=O)(=O)c3ccc4c(c3)C(C)(C)C(=O)N4C)CC2)c1 1.7%
O=[N+]([O-])c1ccc(-c2nc(-c3ccncc3)no2)cc1 -0.342%
COc1cc(C2C(C(=O)c3cccs3)=C(O)C(=O)N2c2cc(C)on2)ccc1O (configuration not stated) -6.09%
O=C(O)CC/C(=C\c1ccccc1[N+](=O)[O-])c1nc2ccccc2s1 -0.422%
CCOc1ccc2nc(SCC3CC3(Cl)Cl)[nH]c2c1 (configuration not stated) -6.5e-05%
COC(=O)CCCCC1SCC(NC(=O)OC)C1NC(=O)OC (configuration not stated) 0.727%
CC(=O)NCCc1nc2cc(NC(=O)c3cccc([N+](=O)[O-])c3)ccc2n1C 0.542%
COc1cc(C(=O)NC(C)Cc2ccccn2)ccc1OC1CCN(C(C)=O)CC1 (configuration not stated) -0.234%
CC(C)(C)c1ccc(C2=CC(c3ccccc3F)n3ncnc3N2)cc1 (configuration not stated) -1.59%
Cc1ccc(S(=O)(=O)N2CCN(C(=O)CC(C)n3cncn3)CC2)cc1 (configuration not stated) -0.485%
CCCn1c(SCc2nc(-c3cccs3)no2)nnc1-c1ccncc1 -0.23%
Cc1ccc(C2=CC(c3ccccc3)n3ncnc3N2)cc1 (configuration not stated) -0.209%
O=[N+]([O-])c1ccccc1/C=N/Nc1nnc(-c2ccccc2)c(-c2ccccc2)n1 1.47%
COc1cc(NC(=O)CSCC(=O)Nc2cc(OC)cc(OC)c2)cc(OC)c1 -1.94%
COc1ccc(NC(=O)N2CCCCCC2)cc1 0.568%
Cc1cc(C)cc(OCC(=O)OCC(=O)N(CC(C)C)c2c(N)n(Cc3ccccc3)c(=O)[nH]c2=O)c1 -0.528%
O=C(CN1CCN(c2ccccn2)CC1)NCCc1ccccc1 -1.61%
O=C(Nc1ccccc1N1CCOCC1)c1cccc2c(Br)cccc12 0.947%
CC1CN(CCC(=O)Nc2ccc3c(c2)CCC3)CC(C)O1 (configuration not stated) 1.45%
Cc1ccccc1NS(=O)(=O)c1ccc(C(=O)OCC(=O)NCC(C)C)cc1 0.283%
CCCNC(=O)N1CCC(c2ccc3c(c2)OCO3)CC1 2.15%

Activity score (negative = inhibition of binding), active:
COc1ccc(/C=C2\SC(=S)N(CCCC(=O)NC3CCCC3)C2=O)cc1OC -48.2%
CCCNC(=O)c1ccc2c(=O)c(O)c(-c3cccc(Br)c3)[nH]c2c1 -83.9%
Cc1cccc(-n2c(C)cc(C=C3C(=O)c4ccccc4C3=O)c2C)c1 -31%
Cc1cc([N+](=O)[O-])nn1CC(=O)NNC(=S)Nc1ccc([N+](=O)[O-])cc1 -36.9%
CCCN1C(=O)/C(=C/c2ccc(C)o2)SC1=Nc1ccc(OC)cc1 -71.6%
O=C1c2ccccc2-c2onc3ccc(NCc4ccco4)c1c23 -77.2%
COc1ccc(NC(=O)CCl)cn1 -60.4%
Cn1ncc2c(NNC(=O)Cc3ccccc3)ncnc21 -34.7%
CCOc1cccc(C2C(C(=O)c3ccc(C)o3)=C(O)C(=O)N2c2nccs2)c1 (configuration not stated) -71.1%
Cc1ccc(/C(O)=C/c2nc3cc(C)ccc3oc2=O)cc1 -120%
COc1cc2c3nnc(-c4ccccc4)c-3cn(Cc3ccc(F)cc3)c2cc1OC -34.4%
O=C(O)c1ccc2nc(-c3ccco3)c(-c3ccco3)nc2c1 -28.8%
ON=C1/C(=N\O)CC2(C/C1=N/O)OCCO2 -31.5%

Activity score (negative = inhibition of binding), inconclusive:
O=C1c2cccc3c(N4CCCCC4)ccc(c23)C(=O)N1c1ccc(O)cc1 -54% [fluorescent]
N#C/C(=C\c1cn(-c2ccccc2)nc1-c1cc2ccccc2o1)c1nc2ccccc2[nH]1 -25.1%
Cc1cccn2c(=O)c3cc(C(=O)NCC4CCCO4)c(=N)n(CCc4ccccc4)c3nc12 (configuration not stated) -24.9%
[O-]/C(=C(\C(=S)NCc1ccco1)[n+]1ccccc1)c1ccccc1Br -11%
CCN(CC)C(=O)C1c2ccccc2Oc2ccccc21 -97.4% [fluorescent]
O=[N+]([O-])c1ccc(C2=Nc3cc(Cl)ccc3OC2)cc1 -7.78%
Cn1cc(/C=C/c2cc[n+](C)cc2)c2cc(Cl)ccc21 42.2% [fluorescent]
CCOC(CNC(=O)CCc1c(C)nc2nc(C)nn2c1C)OCC -15.4%
CC1CN(c2nc3ccccc3nc2C(C#N)C(=O)OC2CCCCC2)CC(C)O1 (configuration not stated) 31.9% [fluorescent]
Cc1oc(/N=C/c2ccc(O)cc2O)c(C#N)c1C -25.5%
O=c1oc2c3c4c(cc2c(C(F)(F)F)c1CCN1CCOCC1)CCCN4CCC3 3.85% [fluorescent]
CCOC(=O)N1CC=C2C(C#N)=C(N)C(C#N)(C#N)[C@H](c3ccsc3)[C@H]2C1 -24.6%
Cc1ccc(S(=O)(=O)N2CCOCC2)cc1C(=O)Nc1ccc(S(=O)(=O)Nc2nccs2)cc1 -23.6%
COC(=O)c1cc2n3ccccc3c(C)c(-c3ccccc3)c-2c1C(=O)OC -25.4%
Cc1cccc(C(=O)NCCCNC(=O)c2cccc(C)c2)c1 -19.5%
CN(C)c1ccc2nc3c(=O)[nH]c(=O)nc-3n(CC(O)C(O)C(O)CO)c2c1 (configuration not stated) -26.7% [fluorescent]
CCCCOc1c(Br)cc(/C=N/O)cc1OCC -14.6%
CCNc1c2c3c(cccc3n(C)c1=O)C(=O)c1ccccc1-2 -127% [fluorescent]
O=C(OCCc1ccccc1)c1cc(O)c(O)c(O)c1 -24.6%
CN1C=CC2=C(C#N)C(N)C(C#N)(C#N)[C@H](c3ccccc3)[C@H]2C1 (some centres not stated) -93.7% [fluorescent]
CCOC(=O)C1C(=O)C=C(/C=C/c2ccc(N(C)C)cc2)CC1c1ccccc1 (configuration not stated) -19%
CN(C)c1ccc(/C=C/c2nc3ccccc3s2)cc1 -24.8%
Cc1ccc(/C=C2\Oc3c(ccc(O)c3CN3CCN(C)CC3)C2=O)cc1 -24.8%
CCn1c(SCc2ccc(C)cc2)nnc1C1CCN(S(=O)(=O)c2ccc(OC)cc2)CC1 -17%
COc1ccc2nc3ccccc3nc2c1NC(=O)c1ccc(Br)cc1 -19%
CCC1(c2ccccc2)NC(=O)N(CC(=O)NCc2ccc(F)cc2)C1=O (configuration not stated) -24.1%
N=C1/C(=C\c2ccc(SCc3ccccc3)o2)C(=O)N=C2SC=NN12 -21.2%
CCOC(=O)C1CCCN(c2nc3ccccc3nc2C(C#N)C(=O)OC(C)C)C1 (configuration not stated) 108% [fluorescent]
CCN1/C(=C/C=C/c2oc3ccc(-c4ccccc4)cc3[n+]2CC)Oc2ccc(-c3ccccc3)cc21 -18.2% [fluorescent]
O=C(NCC1CCCO1)c1ccc(CS(=O)(=O)Cc2ccc(F)cc2)o1 (configuration not stated) -16.9%
COc1ccc(/C=C2/SC(c3ccc(C)cc3)=NC2=O)cc1OC -55.9% [fluorescent]
O=C(Nc1ccc(S(=O)(=O)Nc2nccs2)cc1)c1ccc(F)c(S(=O)(=O)N2CCOCC2)c1 -55.2% [fluorescent]
CCc1ccc(/C=C2\SC(=S)N(CCCC(=O)Nc3ccccn3)C2=O)cc1 -20.8%
COc1ccc(C(=O)/C=C/Nc2ccc([N+](=O)[O-])cc2C)c(OC)c1 -23.2%
N=c1c(C(=O)NC2CCCC2)cc2c(=O)n3ccccc3nc2n1Cc1ccccc1 -25%
O=C1C=C(Nc2ccc(Cl)cc2)C(=O)N1c1ccc(Cl)cc1 -17.6%
CCOC(=O)/C(C#N)=C\c1ccc(N2CCN(C/C=C/c3ccccc3)CC2)cc1 -21.3%
Cc1cc(=O)nc2c3ccccc3n(CC(=O)Nc3ccccc3Br)n12 -19.1%
O=C(Nc1cc(=O)[nH]c2nc(-c3ccccc3)nn12)c1ccccc1Cl -69.3% [fluorescent]
O=C1/C(=C\c2cc([N+](=O)[O-])ccc2O)SC(=S)N1Cc1ccc(Cl)cc1 -3.99% [fluorescent]
O=C(OCCN1C(=O)c2cccc3c(N4CCOCC4)ccc(c23)C1=O)c1ccc(Cl)cc1 -103% [fluorescent]
Cc1cc(O)c(C(C)C)cc1N=C1CSC(=O)N1 -22.9%
CCN1/C(=C/C=C/c2sc3ccccc3[n+]2CC)Sc2ccccc21 11.5% [fluorescent]
CCOC(=O)c1c2ccc(OCC(=O)N/N=C/c3ccc(Cl)cc3)cc2n2ccccc12 -23.4%
COCc1cc(=O)n2[nH]c(-c3cccs3)cc2n1 -16.9%
O=C(c1ccc(Br)s1)N1CCN(c2ccccn2)CC1 -12.5%
COc1ccc(/C=C2/SC(=S)N(CC(=O)O)C2=O)cc1OCc1ccc(Cl)cc1 -32.5% [fluorescent]
CCOC(=O)CC1C(=O)NCCN1c1nc2c(C)cccn2c(=O)c1/C=C1\SC(=S)N(C(C)CC)C1=O (configuration not stated) -32.2% [fluorescent]

— PubChem BioAssay AID1832 (Broad Institute, 2009)
